Measurements taken from PubChem BioAssay AID1347417 (National Center for Advancing Translational Sciences (NCATS), 2020).
Screen size: about 120,000 compounds; about 5,300 (4.4%) were called active. The inconclusive results got no clear call from the source; some entries with a clear call stand among them for comparison. Calls come from the whole dose curve; as a rule, active = well fitted inhibition curve with a large enough effect; inconclusive = small, poorly fitted or top-dose-only effect; inactive = no such curve, though single readings can be large or run the other way. Potencies of inconclusive entries are doubtful fits and often do not repeat.

assay: qHTS Primary assay for Inhibitors of Plasmodium falciparum Dd2 growth in vitro; note: nearly all actives have a fitted effect of over 65% in size;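 for activity, negative = inhibition: plate controls were DMSO vehicle for no effect and reference drug for full effect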; details: P. falciparum Dd2 growth, SYBR Green, 72 h; activity, negative = inhibition: at 28.9 µM (top of the series) unless noted; series mostly up to 28.9 µM
In short: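 Infected erythrocytes (Dd2, 0.3% parasitemia, 2.5% hematocrit final) are added to compound in RPMI-1640/Albumax II medium, grown 72 h at 37C in low oxygen, then lysed with saponin/Triton-X containing SYBR Green and read by fluorescence.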
Potency is the fitted concentration of half-maximal effect; tags give direction and shape of the fitted curve.

Structure (SMILES) | Potency | activity, negative = inhibition | outcome
CCc1noc(-c2nc(-c3ccc(OC)c(OC)c3)no2)n1 | inconclusive: 0.282 µM [inhibitor, full curve] |  | 
NC(=O)C1(NC(=O)c2ccc(S(=O)(=O)N3CCCC(O)C3)cc2)CCCC1 (configuration not stated) |  | inactive: -7.22% | 
O=C(CCN1CCn2nc(CO)cc2C1)Nc1nnc(C2CC2)s1 |  | inactive: -6.39% | 
Cc1ccc(CN2CCNC(=O)C2CC(=O)N(CC(C)C)CC(C)C)cc1 (configuration not stated) | inconclusive: 0.251 µM [inhibitor, full curve, poor fit] |  | 
COc1cccc(-n2c(/C=C\c3ccc(Cl)cc3)nc3ccccc3c2=O)c1 | inconclusive: 17.8 µM [inhibitor, single point] |  | 
CC1(Cc2ccc3c(c2)OCO3)CCCN(C(=O)c2ccccc2-n2cncn2)C1 (configuration not stated) | inconclusive: 1.26 µM [inhibitor, full curve] |  | 
CCN(CC)S(=O)(=O)c1ccc2c(c1)nc(CN(C)C(=O)Nc1ccc(Cl)cc1)n2C | inconclusive: 20 µM [inhibitor, single point] |  | 
CC1CCN(C(=O)CC(c2ccc(Cl)cc2)c2cn(C)c3ccccc23)CC1 (configuration not stated) | active: 7.94 µM |  | 
Cc1oc(-c2cccc(Cl)c2)nc1CN1CCN(S(N)(=O)=O)CC1 |  | inactive: -13.1% | 
Cc1ccc(S(=O)(=O)c2nnn3c2nc(NC(C)c2ccccc2)c2sccc23)cc1 (configuration not stated) | active: 10 µM |  | 
COc1cc2c(cc1OCc1ccccc1)NC(=O)C21CCN(c2ncc(F)cn2)CC1 | inconclusive: 6.31 µM [inhibitor, partial curve, poor fit] |  | 
COc1ccc(C(=O)NCCC2CCN(C(=O)Nc3ccc(C)c(F)c3)CC2)cc1 | inconclusive: 17.8 µM [inhibitor, single point] |  | 
CC(=O)NC1(C)CCCN(Cc2cccc(-c3ccc4c(ccn4C)c3)c2)C1 (configuration not stated) | inconclusive: 14.1 µM [inhibitor, single point] |  | 
CC(C)CNC(=O)N1C[C@@H](Oc2ccccc2)C[C@@H]1C(=O)N1CCOCC1 |  | inactive: 1.84% | 
COc1ccccc1C(=O)N1CCC2(CC1)c1nccn1-c1ccccc1CN2C |  |  | inactive [at 5.79 µM]
CCOc1cccc(C2c3[nH]c4ccccc4c3CCN2C(=O)c2ccccc2F)c1 (configuration not stated) | inconclusive: 11.2 µM [inhibitor, single point] |  | 
CCCCNC(=O)C1CCN(C(=O)c2ncn3c2COC(c2ccc(F)cc2)C3)CC1 (configuration not stated) |  | inactive: -8.74% | 
CCOC(=O)c1c(SCC(=O)Nc2nc3ccccc3s2)nc(=O)[nH]c1C | inconclusive: 17.8 µM [inhibitor, single point] |  | 
CCC(Sc1nnc(C)n2c1cc1sccc12)C(=O)Nc1ccccc1F (configuration not stated) | inconclusive: 15.8 µM [inhibitor, single point] |  | 
CCOc1ncccc1C(=O)N1CCC(Cc2cccc(C(N)=O)c2)C1 (configuration not stated) |  | inactive: 1.85% | 
CC(C)(Oc1nn(Cc2cccc(Cl)c2)c2ccccc12)C(=O)NCc1cnccn1 | inconclusive: 2 µM [inhibitor, full curve, poor fit] |  | 

Structure (SMILES) | Potency | activity, negative = inhibition | outcome
COc1ccc(-c2cc(-c3ccccc3O)cn3cncc23)cc1 | inconclusive: 0.112 µM [inhibitor, full curve, poor fit] |  | 
CCCCC(=O)Oc1ccc2oc(-c3ccc(OC)cc3)cc(=O)c2c1 |  | inactive: 24.6% | 
COc1ccc(C(=O)NCc2nnc3ccc(-c4ccc(C)c(C)c4)nn23)cc1OC | inconclusive: 17.8 µM [inhibitor, single point] |  | 
O=c1c2nc(-c3cccc(O)c3)ccc2ncn1-c1ccccc1 | inconclusive: 0.562 µM [inhibitor, full curve] |  | 
CC(C)c1ccc(NC(=O)c2cc(S(=O)(=O)N3CCCCC3)cn2C)cc1 | inconclusive: 3.98 µM [inhibitor, partial curve, poor fit] |  | 
CN1CCN(C(=O)Cn2c(-c3cccs3)cc3cc(Cl)ccc32)CC1 | inconclusive: 12.6 µM [inhibitor, single point] |  | 
COC(=O)c1cc(NC(=O)c2nn(C)c3c2CSc2ccccc2-3)cc(C(=O)OC)c1 | inconclusive: 0.794 µM [inhibitor, single point] |  | 
CCOc1ccc(N(CC)S(=O)(=O)N2CCCC(C(=O)Nc3cc(Cl)ccc3C)C2)cc1 (configuration not stated) | inconclusive: 20 µM [inhibitor, single point] |  | 
CC(C)COc1ccc(C2=NC(c3ccncc3)=Nc3ccc(F)cc3N2)cc1 |  | inactive: -2.42% | 
O=C1NCCCCCCN(Cc2ccncc2)[C@@H]2CN(S(=O)(=O)c3cccc(F)c3)CC[C@H]12 | inconclusive: 7.94 µM [inhibitor, partial curve, poor fit] |  | 
O=C(NCCc1nc(-c2cccnc2)n[nH]1)C1CNCCO1 (configuration not stated) |  | inactive: 4.99% | 
CO[C@H]1C(=O)N(C(C)C)[C@H]1C1CCN(C(=O)c2c[nH]c3ccccc23)CC1 | inconclusive: 8.91 µM [inhibitor, partial curve] |  | 
Cn1nccc1CN1CCCC(c2nn(-c3ccc(Cl)cc3)c(=O)[nH]2)C1 (configuration not stated) |  | inactive: -15.9% | 
CCOc1ccc(S(=O)(=O)N2CCC3(CC2)CN(C)CC3COC)cc1 (configuration not stated) | inconclusive: 1.12 µM [inhibitor, full curve, poor fit] |  | 
CCC(C)NC(=O)C(NC(=O)c1cccc(C)c1)C1CCN(C(=O)c2ccccc2F)CC1 (configuration not stated) |  |  | inactive
COc1cc(C2SC[C@H]3C(=O)N(c4ccccc4)C(=O)N23)cc(OC)c1OC (some centres not stated) | inconclusive: 12.6 µM [inhibitor, single point] |  | 
CCC1(N2CCN(C)CC2)CCN(S(=O)(=O)c2ccccc2)C1 (configuration not stated) | inconclusive: 1.12 µM [inhibitor, full curve, poor fit] |  | 
O=C(N[C@H]1CO[C@H]2[C@@H]1OC[C@@H]2Nc1nccc(-c2cccs2)n1)c1ccc(C(F)(F)F)cc1 | inconclusive: 15.8 µM [inhibitor, single point] |  | 
Cc1ccc(-c2n[nH]c3c2C(c2cccc(O)c2)N(c2ccc(C(=O)O)cc2)C3=O)cc1 (configuration not stated) |  | inactive: 20.6% | 
COCCCNc1nc2c([S+](=O)([O-])c3ccc(OC)cc3)nnn2c2ccccc12 |  | inactive: -18.8% | 
CCN(CC)CCNC(=O)c1ccc(CSc2nc3ccncc3n2Cc2cccc(F)c2)cc1 | inconclusive: 14.1 µM [inhibitor, partial curve, poor fit] |  | 
